Data reported in the supplement of paper PMC10338343.
± gives the standard deviation. The list shows a part of the results, in another mix than the full data.

Each sequence was assayed on MIWI (PIWIL1) piRISC loaded with L1MC piRNA (30 nt) (assay: pre-steady-state target cleavage rate (min^-1); MIWI and MILI are mouse PIWI proteins and EfPiwi is from a freshwater sponge; tags in brackets are library labels; higher = faster piRNA-guided slicing of the target). Details: guide: L1MC piRNA 5'p-UAACUAAAUACUAUGCAAGCUGUAGGUCCU; auxiliary factor: 500 nM mouse GTSF1.
How it was run: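 Sequencing of uncleaved targets, normalised to depth and to weakly complementary targets, was the readout of this Cleave-'n-Seq assay. A transcribed, DNA-blocked target RNA library (0.1 nM) was mixed with 1 nM active affinity-purified piRISC carrying one synthetic guide, with or without 500 nM GTSF1 partner protein, in HEPES–potassium acetate buffer at 33 °C for 0–8 or 0–960 min. Three trials were pooled, k3 was capped at 0.0001 min^-1, and a burst-and-steady-state fit gave the pre-steady-state cleavage rate.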

| Sequence | pre-steady-state target cleavage rate |
| --- | --- |
| UCCUGGAUCAGCUUGCAUAGUAUUAUCAAA [g7:g22:cont:t1A] | 0.226 ± 0.038 |
| UCCUCCUACACCUUGCAUAGUAUUUUCAAA | 0.339 ± 0.071 |
| UGGACCUACAGCUUGCAUAGCUAUUUAGUUA | 0.00639 ± 0.0036 |
| UGGACCUACAGCUUGCAUAGUAUAAUGAAA | 0.192 ± 0.036 |
| UCCUGGAUGUCGAACGUUAGCUAUUUAGUUA | < 0.0001 |
| UCCUGCUACAGCUUCCAUAGUAAUUAGUUA | 0.0892 ± 0.03 |
| UCCACCUACAGCUUGCUUAGUAUUUUCAAA | 0.167 ± 0.026 |
| UCCUGGAUGAGCUUCCAUAGUAUUUAGUAA | 0.017 ± 0.0076 |
| UCCUCCUAGAGCUUGCAUAGUAUUUUCAAA | 0.186 ± 0.033 |
| UCCACCUACAGCUUCGUUAGUAUUUAGUAA | 0.0261 ± 0.0075 |
| UCCUGGAUGUCCUUGCAUAGUUAAUAGUUA | 0.00429 ± 0.004 |
| UCCUGGAAGAGCUUGCAUAGUAUUUUCAAA | 0.0646 ± 0.018 |
| UCCUGGAUGUGCUUGCAUAGUAUUAUCUUA | 0.00518 ± 0.0044 |
| UCCUGCUACAGCUUGCAUAGUAUUUUCUAA | 0.218 ± 0.037 |
| UCCUGGAUGAGGUAGCAUAGUAUUUAGUUA | 0.0186 ± 0.0033 |
| UCCUCCUACAGCUUGCAAUGUAUUUACAAA | 0.0758 ± 0.019 |
| UCCUCCUACAGCUUGACAUAGUAUUUAGUUA | 0.651 ± 0.053 |
| UCCUGGAACUGCUUGCAUAGUAUUUUCAAA | 0.0751 ± 0.016 |

| Sequence | pre-steady-state target cleavage rate |
| --- | --- |
| UCCUGGAUCAGCUUGCAUAGAUAUUUAGUUA | 0.00396 ± 0.0038 |
| UCGACCUACAGCUUGCAUAGUUAUUAGAAA | 0.154 ± 0.039 |
| UCCACCUACAGCUUCCAUAGUUUUUAGUUA | 0.0349 ± 0.013 |
| UCCUGGAUGUCCUAGCAUAGUAUUUUGUUA | 0.00704 ± 0.0048 |
| UCCUGGAUGUCGAACCAUAGAUUUAGUUA | < 0.0001 |
| UCCUGGAUGUGCUUGCAUAGUUUUAAGUUA | 0.00545 ± 0.0045 |
| UCCUGGAUGUGCAUGCAUAGUAAUUAGUUA | 0.0074 ± 0.0035 |
| UCCUGGAUGUCGAACCAUAGUAUUUGAGUUA | < 0.0001 |
| UCCUGGAUGUCCUUGCAUAGUAUUUAUGUUA | 0.019 ± 0.006 |
| UGGACCUACAGCUACCAUAGUAUUUAGAAA | 0.0193 ± 0.0039 |
| UCCUCCUACAGCUUGCAUAGUAAAUUCAAA | 0.142 ± 0.041 |
| UGGACCUACAGCUUGCAUAGUAUUAUCAAA | 0.212 ± 0.039 |
| UCCUGGAUGUCCUUGCUAUGUAUUUAGUAA | 0.00637 ± 0.0038 |
| UCCUGGAUGUCGUUGCAUAGUAUUUUGUUA | 0.00862 ± 0.0041 |
| UCCUGGAAGUCCUUGCAUAGUAUUUUCAAA | 0.0083 ± 0.0049 |
| UCCUGGAUGAGCUUGCAUAGUAUAAUGUAA | 0.0364 ± 0.014 |
| UCCUGGAACAGCUUGCAUAGUAUUUUCAAA | 0.214 ± 0.034 |
| UCCUGCUACAGCUUGCAUAGUAAAUUCAAA | 0.0226 ± 0.0092 |

Same assay, conditions: guide: L1MC piRNA 5'p-UAACUAAAUACUAUGCAAGCUGUAGGUCCU; auxiliary factor: none (no GTSF1)

| Sequence | pre-steady-state target cleavage rate |
| --- | --- |
| UCCUGGAUGUCGAACGAUAGUAUUUACAAA | < 0.0001 |
| UCGACCUACAGCUUGAAUAGUAUUUAGUUA | 0.0397 ± 0.0067 |
| UGUACCUACAGCUUGCAUAGUAUUUAGUUA | 0.0875 ± 0.013 |
